According to publication PMC5148612:
These are yes or no findings as the source states them, for the method shown. Tags and fused reporters may be left off the sequences shown. One block for each binder: values may come before it.

What was measured:
[1] = target: T1, GST-Atg19(365–415) (S. cerevisiae) (UniProt P35193); experiment: microscopy-based protein-protein interaction assay on beads; glutathione beads coated with GST baits at 20 µM, Atg12~Atg5-Atg16-mCherry 5 µM, 25 mM HEPES pH 7.5, 150 mM NaCl, 1 mM DTT, imaged at equilibrium by spinning disc microscopy (Figures 1B, 2F, 2G); both purified
T1 sequence: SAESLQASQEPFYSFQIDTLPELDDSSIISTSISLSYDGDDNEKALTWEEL

[2] = target: T2, GST-Atg19(365–407) F376A, F379A, L384A, L387A (S. cerevisiae) (UniProt P35193); experiment: pull-down; GST-fused bait 20 µM and GST-free prey 5 µM with glutathione Sepharose 4B, 1 hr at 4°C; washed with 25 mM HEPES pH 7.5, 150 mM NaCl, 1 mM DTT; anti-Atg5 Western blot (Figure 2E, Figure 3—figure supplement 1, Figure 4C); both purified
T2 sequence: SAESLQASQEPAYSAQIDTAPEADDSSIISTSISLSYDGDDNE

[3] = target: T2, GST-Atg19(365–407) F376A, F379A, L384A, L387A (S. cerevisiae); experiment: microscopy-based protein-protein interaction assay on beads; glutathione beads coated with GST-fused proteins at 30 µM, Atg5-mCherry-Atg16 (1–46) 18 µM, equilibrium (Figure 3B, C); both purified

binding [1]: no binding (tested: 5 µM)
B1: Atg12~Atg5-Atg16-mCherry complex (complex, UniProt P38316 1-186; Q12380 1-294; Q03818 1-150)
chain 1: MSRILESENETESDESSIISTNNGTAMERSRNNQELRSSPHTVQNRLELFSRRLSQLGLASDISVDQQVEDSSSGTYEQEETIKTNAQTSKQKSHKDEKNIQKIQIKFQPIGSIGQLKPSVCKISMSQSFAMVILFLKRRLKMDHVYCYINNSFAPSPQQNIGELWMQFKTNDELIVSYCASVAFG
chain 2: MNDIKQLLWNGELNVLVSIDPSFLMKGSPREIAVLRIRVPRETYLVNYMPLIWNKIKSFLSFDPLTDSEKYFWFEHNKTPIPWNYPVGVLFDCLAGKSATFTTSFENQVKDVLTFLRIHLVMGDSLPPTIIPIASSKTQAEKFWFHQWKQVCFILNGSSKAIMSLSVNEARKFWGSVITRNFQDFIEISNKISSSRPRHIPLIIQTSRTSGTFRISQPTISMTGVNPTLKDIEGDILDVKEGINGNDVMVICQGIEIPWHMLLYDLYSKLRSFDGFLYITLVPIKGGDKASSEL
chain 3: MGNFIITERKKAKEERSNPQTDSMDDLLIRRLTDRNDKEAHLNELFQDNSGAIGGNIVSHDDALLNTLAILQKELKSKEQEIRRLKEVIALKNKNTERLNDELISGTIENNVLQQKLSDLKKEHSQLVARWLKKTEKETEAMNSEIDGTK
modifications: conjugated to Atg5 (Atg12~Atg5 protein conjugate) | conjugated to Atg12

binding [2]: no binding (tested: 5 µM)
B2: Atg5-Atg16 (1–46) (complex, UniProt Q12380 1-294; Q03818 1-46)
chain 1: B1 chain 2
chain 2: MGNFIITERKKAKEERSNPQTDSMDDLLIRRLTDRNDKEAHLNELF

binding [3]: no binding (tested: 18 µM)
B3: Atg5-mCherry-Atg16 (1–46) complex (complex, UniProt Q12380 1-294; Q03818 1-46)
chain 1: B1 chain 2
chain 2: B2 chain 2
